Results: the supplement of paper PMC4967469
IC50 is the fitted dose that halves viability relative to control wells, and lower means more sensitive; where the fit passes the top or lowest dose, that dose stands as a limit. For AUC the same curve is integrated over the 256-fold range of doses and scaled to a fraction; the more sensitive the line, the further below 1. A top dose marked as inferred was calculated from the reported fits. For part of these data: An entry number marks a drug with two screens in the source, which often give different values.

How the values were obtained:
[1] = compound: O=c1[nH]c2ccccc2n1C1CCN(Cc2ccc(-c3[nH]c4cc5ncnc5cc4nc3-c3ccccc3)cc2)CC1 [AKT inhibitor VIII]; assay: Viability of human cancer cell lines after 72 h of drug (GDSC screen); conditions: top dose inferred
Method: (§1)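 Human cancer cell lines in 384-well plates, medium with 10% serum, drug for 72 h over a 256-fold dose range (nine 2-fold or five 4-fold steps up to the top dose). Adherent lines were fixed and stained with the nucleic acid dye Syto60, suspension lines read with resazurin; signal relative to control wells, capped at 0 and 100%. One two-parameter sigmoid per drug and line, fitted in a mixed model over all curves with the slope shared within a line.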

[2] = compound: NC(=O)c1ncn([C@@H]2O[C@H](CO)[C@@H](O)[C@H]2O)c1N [AICAR]; assay: as above; conditions: top dose 2000 µM; top dose inferred
Method: as §1

[3] = top dose 2.56 µM, screen: GDSC drug entry 171
[4] = top dose 10.24 µM, screen: GDSC drug entry 228

## COLO-783 (melanoma, adherent)
[1]; [3]
  AUC: 0.99
  IC50: > 2.56 µM
[1]; [4]
  AUC: 0.963
  IC50: > 10.2 µM
[2]
  AUC: 0.988
  IC50: > 2000 µM

## COLO-800 (melanoma, adherent)
[1]; [3]
  AUC: 0.985
  IC50: > 2.56 µM
[1]; [4]
  AUC: 0.878
  IC50: 9.89 µM
[2]
  AUC: 0.928
  IC50: > 2000 µM

## COLO-824 (breast, adherent)
[1]; [3]
  AUC: 0.977
  IC50: > 2.56 µM
[1]; [4]
  AUC: 0.856
  IC50: 8.49 µM
[2]
  AUC: 0.891
  IC50: > 2000 µM

## COR-L23 (large cell lung carcinoma, adherent)
[1]; [3]
  AUC: 0.985
  IC50: > 2.56 µM
[1]; [4]
  AUC: 0.893
  IC50: > 10.2 µM
[2]
  AUC: 0.777
  IC50: 781 µM

## COR-L95 (small cell lung carcinoma, adherent)
[1]; [3]
  AUC: 0.968
  IC50: > 2.56 µM
[1]; [4]
  AUC: 0.884
  IC50: > 10.2 µM
[2]
  AUC: 0.954
  IC50: > 2000 µM

## COR-L321 (lung, suspension)
[1]; [4]
  AUC: 0.872
  IC50: 9.72 µM
[2]
  AUC: 0.952
  IC50: > 2000 µM

## CP50-MEL-B (melanoma, adherent)
[1]; [3]
  AUC: 0.964
  IC50: > 2.56 µM
[1]; [4]
  AUC: 0.979
  IC50: > 10.2 µM
[2]
  AUC: 0.966
  IC50: > 2000 µM

## CP66-MEL (melanoma, adherent)
[1]; [3]
  AUC: 0.981
  IC50: > 2.56 µM
[1]; [4]
  AUC: 0.915
  IC50: > 10.2 µM
[2]
  AUC: 0.951
  IC50: > 2000 µM

## CPC-N (small cell lung carcinoma, suspension)
[1]; [3]
  AUC: 0.967
  IC50: > 2.56 µM
[1]; [4]
  AUC: 0.932
  IC50: > 10.2 µM
[2]
  AUC: 0.684
  IC50: 432 µM

## CS1 (bone, adherent)
[1]; [3]
  AUC: 0.926
  IC50: > 2.56 µM
[1]; [4]
  AUC: 0.852
  IC50: 9.43 µM
[2]
  AUC: 0.808
  IC50: 1190 µM

## CTB-1 (B-cell lymphoma, suspension)
[1]; [3]
  AUC: 0.915
  IC50: > 2.56 µM
[1]; [4]
  AUC: 0.828
  IC50: 9.73 µM
[2]
  AUC: 0.739
  IC50: 792 µM

## CW-2 (large intestine, adherent)
[1]; [3]
  AUC: 0.989
  IC50: > 2.56 µM
[1]; [4]
  AUC: 0.842
  IC50: 8.02 µM
[2]
  AUC: 0.924
  IC50: > 2000 µM

## Ca9-22 (head and neck, adherent)
[1]; [3]
  AUC: 0.906
  IC50: > 2.56 µM
[1]; [4]
  AUC: 0.97
  IC50: > 10.2 µM
[2]
  AUC: 0.835
  IC50: 1180 µM

## Ca-Ski (cervix, adherent)
[1]; [3]
  AUC: 0.865
  IC50: > 2.56 µM
[1]; [4]
  AUC: 0.572
  IC50: 1.03 µM
[2]
  AUC: 0.781
  IC50: 938 µM

## CaR-1 (large intestine, adherent)
[1]; [3]
  AUC: 0.94
  IC50: > 2.56 µM
[1]; [4]
  AUC: 0.948
  IC50: > 10.2 µM
[2]
  AUC: 0.865
  IC50: > 2000 µM

## Calu-3 (lung adenocarcinoma, adherent)
[1]; [3]
  AUC: 0.844
  IC50: > 2.56 µM
[1]; [4]
  AUC: 0.831
  IC50: 8.93 µM
[2]
  AUC: 0.863
  IC50: > 2000 µM

## Calu-6 (lung adenocarcinoma, adherent)
[1]; [3]
  AUC: 0.959
  IC50: > 2.56 µM
[1]; [4]
  AUC: 0.971
  IC50: > 10.2 µM
[2]
  AUC: 0.729
  IC50: 624 µM

## Caov-4 (ovary, adherent)
[1]; [3]
  AUC: 0.97
  IC50: > 2.56 µM
[1]; [4]
  AUC: 0.848
  IC50: > 10.2 µM
[2]
  AUC: 0.935
  IC50: > 2000 µM

## D-247MG (glioma, adherent)
[1]; [3]
  AUC: 0.98
  IC50: > 2.56 µM
[1]; [4]
  AUC: 0.972
  IC50: > 10.2 µM
[2]
  AUC: 0.932
  IC50: > 2000 µM

## D-263MG (glioma, adherent)
[1]; [3]
  AUC: 0.978
  IC50: > 2.56 µM
[1]; [4]
  AUC: 0.983
  IC50: > 10.2 µM
[2]
  AUC: 0.949
  IC50: > 2000 µM

## D-336MG (glioma, adherent)
[1]; [3]
  AUC: 0.96
  IC50: > 2.56 µM
[1]; [4]
  AUC: 0.849
  IC50: > 10.2 µM
[2]
  AUC: 0.981
  IC50: > 2000 µM

## D-392MG (glioma, adherent)
[1]; [3]
  AUC: 0.924
  IC50: > 2.56 µM
[1]; [4]
  AUC: 0.906
  IC50: > 10.2 µM
[2]
  AUC: 0.931
  IC50: > 2000 µM

## D-423MG (glioma, adherent)
[1]; [4]
  AUC: 0.921
  IC50: > 10.2 µM
[2]
  AUC: 0.883
  IC50: > 2000 µM

## D-502MG (glioma, adherent)
[1]; [3]
  AUC: 0.977
  IC50: > 2.56 µM
[1]; [4]
  AUC: 0.941
  IC50: > 10.2 µM
[2]
  AUC: 0.946
  IC50: > 2000 µM

## D-542MG (glioma, adherent)
[1]; [3]
  AUC: 0.947
  IC50: > 2.56 µM
[1]; [4]
  AUC: 0.975
  IC50: > 10.2 µM
[2]
  AUC: 0.969
  IC50: > 2000 µM

## D-566MG (glioma, adherent)
[1]; [4]
  AUC: 0.769
  IC50: 3.81 µM
[2]
  AUC: 0.898
  IC50: > 2000 µM

## DAN-G (pancreas, adherent)
[1]; [3]
  AUC: 0.98
  IC50: > 2.56 µM
[1]; [4]
  AUC: 0.918
  IC50: > 10.2 µM
[2]
  AUC: 0.85
  IC50: 1230 µM

## DB (B-cell lymphoma, suspension)
[1]; [3]
  AUC: 0.983
  IC50: > 2.56 µM
[1]; [4]
  AUC: 0.879
  IC50: > 10.2 µM
[2]
  AUC: 0.552
  IC50: 176 µM

## DBTRG-05MG (glioma, adherent)
[1]; [3]
  AUC: 0.968
  IC50: > 2.56 µM
[1]; [4]
  AUC: 0.967
  IC50: > 10.2 µM
[2]
  AUC: 0.869
  IC50: > 2000 µM

## DEL (lymphoid neoplasm, suspension)
[1]; [3]
  AUC: 0.98
  IC50: > 2.56 µM
[1]; [4]
  AUC: 0.864
  IC50: 5.99 µM
[2]
  AUC: 0.905
  IC50: 1680 µM

## DG-75 (Burkitt lymphoma, suspension)
[1]; [3]
  AUC: 0.987
  IC50: > 2.56 µM
[1]; [4]
  AUC: 0.853
  IC50: 8.16 µM
[2]
  AUC: 0.812
  IC50: 1080 µM

## DJM-1 (skin, adherent)
[1]; [3]
  AUC: 0.972
  IC50: > 2.56 µM
[1]; [4]
  AUC: 0.983
  IC50: > 10.2 µM
[2]
  AUC: 0.837
  IC50: 1320 µM

## DK-MG (glioma, adherent)
[1]; [3]
  AUC: 0.868
  IC50: > 2.56 µM
[1]; [4]
  AUC: 0.832
  IC50: > 10.2 µM
[2]
  AUC: 0.965
  IC50: > 2000 µM
